Screen size: about 200,000 compounds; about 10 (0.005%) were called active. Inconclusive means that the source gave no clear call. Such entries were picked first, then a sample of the others. The call rests on the fitted dose curve; in most records, active means well fitted inhibition curve with a large enough effect; inconclusive means small, poorly fitted or top-dose-only effect, or effect the other way, or another doubt; inactive means no such curve, though single readings can be large or run the other way. Potencies of inconclusive entries are doubtful fits and often do not repeat.
target: Lysosomal alpha-glucosidase (Homo sapiens) (UniProt P10253); test: qHTS Assay for Inhibitors of Human alpha-Glucosidase as a Potential Chaperone Treatment of Pompe Disease; conditions: purified human GAA, 4-MU-alpha-glucoside fluorescence; activity change, negative = inhibition: at 76.9 µM (top of the series) unless noted;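 on activity change, negative = inhibition: plate controls were uninhibited enzyme wells for no effect and no-enzyme background for full effect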
Method in brief: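 Read-out is 4-methylumbelliferone fluorescence (Ex 365/Em 440 nm) after NaOH/glycine stop at pH 10. Enzyme 4 nM, substrate 400 uM, pH 5.0 citrate buffer, 20 min room temperature; AC50 from Hill-equation concentration-response.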
Potency means the concentration at half of the fitted maximal effect; tags describe the fitted curve by direction and shape.

Activity change, negative = inhibition, inactive:
Clc1ccc2nc(CSc3ncn[nH]3)cn2c1 4.68%
Cc1occc1-c1nnc(SCC(=O)N2CCOCC2)n1Cc1ccco1 -4.85%
C/C(CC(=O)Nc1ccc(Cl)c(Cl)c1)=N\NC(N)=S -11.6%
Cn1c(SCC(=O)CC(=O)Nc2ccccc2)nnc1-c1ccc(O)cc1 1.86%
CCN1C(=O)c2cccc3c(S(=O)(=O)Nc4ccccc4)ccc1c23 -10.4%

Activity change, negative = inhibition, inconclusive:
COc1cc(C(=O)N/N=C/c2ccc(OC)c(CN3CCN(c4ccc(F)cc4)CC3)c2)ccc1O -16.1% [inhibitor]
C=CCn1c(O)c(N=NC(=S)Nc2cccc(OC)c2)c2ccccc21 -15.7% [inhibitor]
O=C(C1CC12CCCC2)N1CCC(CO)(Cc2ccccc2Cl)CC1 (stereo not drawn) 18.4% [activator]
Cc1ccc2nc(Nc3nc(CSc4nnc(C)s4)cc(=O)[nH]3)nc(C)c2c1 22.4% [activator]
CCOc1ccc(-n2cnnn2)cc1S(=O)(=O)NCCc1ccc(OC)c(OC)c1 -17% [inhibitor]
CC(C)CC(=O)NC(=S)Nc1sc2c(c1C(N)=O)CCC2 7.24% [activator]
O=c1c(-c2ccnn2-c2cccc(Cl)c2)cnc2n1CCS2 -15.9% [inhibitor]
CC(=O)NC(=S)Nc1ccccc1N1CCCCC1 15.3% [activator]
CC(C)CNC(=O)Nc1ccc(F)c(Cl)c1 18.4% [activator]
Cc1cc(-c2ccccc2)nc(-c2ccccc2)c1C 18.6% [activator]
CCOC(=O)C1(CCOc2ccccc2)CCN(Cc2cccn2-c2cccnc2)CC1 -15.6% [inhibitor]

Potency, inconclusive:
O=C(Nc1ccon1)c1ccccc1F 10 µM [inhibitor, full curve, poor fit]
Cc1ccc(S(=O)(=O)N(CC(O)CN2CCCCC2)c2ccccc2)cc1 (stereo not drawn) 31.6 µM [inhibitor, single point]
CCOC(=O)c1c(NC(=O)CSc2nnc(Cc3csc(N)n3)n2C)sc(C)c1C 3.98 µM [inhibitor, partial curve, poor fit]
CCC(=O)c1ccc(OCc2ccc(C(=O)c3ccccc3)cc2)cc1 3.16 µM [activator, partial curve, poor fit]
O=C(c1ccc(Cl)cc1)N1CCN(C(=O)c2ccco2)CC1 1.78 µM [activator, single point]
COc1ccc(NC2=CC(=O)CC(c3ccccc3)C2)c(OC)c1 (stereo not drawn) 20 µM [inhibitor, partial curve]
CCOC(=O)c1nnn(-c2nc(N3CCCC3)nc(N3CCCC3)n2)c1-c1ccccc1 2.51 µM [inhibitor, full curve]
CC(C)CNC(=O)COC(=O)c1cc(Cl)cc(Cl)c1N 39.8 µM [activator, single point]
O=C(CCN1C(=O)c2ccccc2C1=O)N1CCCCCC1 56.2 µM [inhibitor, single point]
CCOC(=O)c1nnn(-c2nonc2N)c1CSc1ccc(C)cc1 50.1 µM [inhibitor, single point]
c1cncc(-c2nnc3n2C2(CCCCC2)Cc2ccccc2-3)c1 0.447 µM [inhibitor, full curve, poor fit]
CC(=O)N1CCC2(CC1)CC(=O)c1cc(OCC(=O)NCc3ccc(C)cc3)ccc1O2 22.4 µM [activator, partial curve]
CCCOc1cccc(NC(=O)c2c(-c3ccccc3)noc2C)c1 7.08 µM [inhibitor, full curve, poor fit]
O=C(Nc1ccc2c(c1)OCCO2)c1ccc(Br)c(S(=O)(=O)N2CCOCC2)c1 56.2 µM [inhibitor, single point]
O=C(Nc1ncc2c(n1)-c1ccccc1CC2)c1ccccc1 4.47 µM [inhibitor, single point]
Cc1ccc2nc(N(CCCN(C)C)C(=O)CN3C(=O)c4ccccc4C3=O)sc2c1 5.62 µM [inhibitor, partial curve]
CCOC(=O)N1CCC(N(CCN(C)C)C(=S)Nc2ccccc2OC)CC1 11.2 µM [inhibitor, single point]
Cc1ccccc1CSCc1nc2ccccc2[nH]1 5.01 µM [inhibitor, single point]
O=C(NCCCn1ccnc1)c1cccc(S(=O)(=O)Nc2ccccc2F)c1 22.4 µM [inhibitor, single point]
COc1ccccc1CCn1c(N)c(C#N)c2nc3ccccc3nc21 11.2 µM [activator, partial curve]
Cc1ccc(Cl)cc1N1CCN(Cc2nnnn2C2CCCCC2)CC1 0.794 µM [inhibitor, full curve, poor fit]
C=CCOC(=O)C1=C(C)NC(=O)NC1c1cn(-c2ccccc2)nc1-c1cccs1 (stereo not drawn) 35.5 µM [inhibitor, partial curve]
CNS(=O)(=O)c1cccc(C(=O)OCc2cc(=O)n3cc(Br)ccc3n2)c1 2 µM [inhibitor, full curve, poor fit]
CC(C)(C)C(=O)OCCn1c(=O)c2cc3c(=O)n(CCOC(=O)C(C)(C)C)c(=O)c3cc2c1=O 12.6 µM [inhibitor, single point]
Cc1ccc(C2CCN(C(=S)Nc3cccc(C)c3)C2)cc1 (stereo not drawn) 50.1 µM [inhibitor, single point]
N/C(Cc1ccc([N+](=O)[O-])cc1)=N\OC(=O)c1ccccc1F 7.94 µM [inhibitor, full curve]
Cc1ccc(-c2cn(-c3ccccc3)c(SCC(=O)NC3CCS(=O)(=O)C3)n2)cc1C (stereo not drawn) 50.1 µM [inhibitor, single point]

From PubChem BioAssay AID1466 (National Center for Advancing Translational Sciences (NCATS), 2008)
